Reference: US20240209113A1 (BEIGENE SWITZERLAND, published 2024)

Tests used:
Test in all cases: ELISA
human CD40 ECD-mIgG2a = target: T1, human CD40 ECD-mIgG2a (human)
T1 construct: also called huCD40; TNFRSF5(CD40)

TNFRSF7(CD27) = target: T2, TNFRSF7(CD27) (UniProt P26842 20-192, limits assumed)
T2 construct: Bought protein

TNFRSF1B(CD120b) = target: T3, TNFRSF1B(CD120b) (UniProt P20333 23-257)
T3 construct: Bought protein
T3 sequence (looked up): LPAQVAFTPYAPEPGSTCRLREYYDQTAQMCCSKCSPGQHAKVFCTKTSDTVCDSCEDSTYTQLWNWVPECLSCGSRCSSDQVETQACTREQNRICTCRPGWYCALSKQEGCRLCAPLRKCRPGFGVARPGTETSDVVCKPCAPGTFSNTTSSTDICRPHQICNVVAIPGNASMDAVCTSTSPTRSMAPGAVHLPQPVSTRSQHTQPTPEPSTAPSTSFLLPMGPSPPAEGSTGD

TNFRSF18(GITR) = target: T4, TNFRSF18(GITR) (UniProt Q9Y5U5 26-161, limits assumed)
T4 construct: Bought protein
T4 sequence (looked up): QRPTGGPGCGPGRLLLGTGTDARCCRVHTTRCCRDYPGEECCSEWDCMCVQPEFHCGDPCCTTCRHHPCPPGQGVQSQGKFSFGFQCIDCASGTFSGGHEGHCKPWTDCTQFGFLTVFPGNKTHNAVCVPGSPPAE

human OX40 ECD-His = target: T5, human OX40 ECD-His (human, UniProt P43489 29-216)
T5 construct: also called human OX40-his; huOX40
T5 sequence: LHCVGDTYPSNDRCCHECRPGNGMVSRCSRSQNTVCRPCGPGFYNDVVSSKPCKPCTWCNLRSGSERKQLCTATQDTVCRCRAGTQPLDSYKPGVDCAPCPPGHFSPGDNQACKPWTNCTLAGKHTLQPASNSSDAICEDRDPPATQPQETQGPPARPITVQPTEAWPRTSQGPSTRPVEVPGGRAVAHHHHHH

TNFRSF1A(CD120a) = target: T6, TNFRSF1A(CD120a) (UniProt P19438 30-211, limits assumed)
T6 construct: Bought protein
T6 sequence (looked up): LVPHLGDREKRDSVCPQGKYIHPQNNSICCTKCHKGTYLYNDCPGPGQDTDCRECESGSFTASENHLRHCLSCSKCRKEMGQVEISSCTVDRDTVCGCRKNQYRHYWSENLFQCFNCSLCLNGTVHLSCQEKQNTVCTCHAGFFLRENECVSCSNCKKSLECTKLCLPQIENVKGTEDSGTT

Measured: binding result

Chain of TNFRSF7(CD27) (P26842 20-192 limits assumed): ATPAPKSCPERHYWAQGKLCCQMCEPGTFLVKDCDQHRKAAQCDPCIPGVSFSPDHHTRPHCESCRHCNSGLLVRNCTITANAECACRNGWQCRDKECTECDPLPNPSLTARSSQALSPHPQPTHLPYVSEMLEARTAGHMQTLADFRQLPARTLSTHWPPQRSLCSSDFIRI
Chain of human CD40 ECD-mIgG2a (chain, as listed by the source limits assumed): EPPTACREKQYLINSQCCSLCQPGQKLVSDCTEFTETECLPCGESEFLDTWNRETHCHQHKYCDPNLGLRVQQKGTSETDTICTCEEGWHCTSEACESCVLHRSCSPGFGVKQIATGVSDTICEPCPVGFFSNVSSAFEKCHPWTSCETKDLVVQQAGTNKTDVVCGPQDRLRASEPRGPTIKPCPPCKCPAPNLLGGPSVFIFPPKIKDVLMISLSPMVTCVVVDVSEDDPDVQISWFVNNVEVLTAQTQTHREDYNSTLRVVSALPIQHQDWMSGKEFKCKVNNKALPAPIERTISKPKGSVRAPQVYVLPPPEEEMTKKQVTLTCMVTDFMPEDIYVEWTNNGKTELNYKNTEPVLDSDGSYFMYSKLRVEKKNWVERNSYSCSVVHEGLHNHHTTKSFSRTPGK

B1: BGA-5623 fused with wild type IgG1 Fc (Fc fusion)
chain: EVQLLESGGGLVQPGGSLRLSCAASGFTVSAEDVGWVRQAPGKGLEWVSAILDKGGSTYYAESVKGRFTISRDNAKNTLYLQMSSLRAEDTAVYYCARIVYHAGGGVTFDTRGQGTQVTVSS[omitted - human IgG1 Fc with changes]
no binding (tested: coated at 10 µg/ml): all assays above
